Reference: the supplement of paper PMC3334620
Whole data set: some 33,000 sequences, median “E-score (-0.5 to 0.5)” near -0.021, cut for the highest 2% near 0.32. Some of the results follow.

Molecular target: T1, Zap1 (UniProt P47043)
T1 sequence: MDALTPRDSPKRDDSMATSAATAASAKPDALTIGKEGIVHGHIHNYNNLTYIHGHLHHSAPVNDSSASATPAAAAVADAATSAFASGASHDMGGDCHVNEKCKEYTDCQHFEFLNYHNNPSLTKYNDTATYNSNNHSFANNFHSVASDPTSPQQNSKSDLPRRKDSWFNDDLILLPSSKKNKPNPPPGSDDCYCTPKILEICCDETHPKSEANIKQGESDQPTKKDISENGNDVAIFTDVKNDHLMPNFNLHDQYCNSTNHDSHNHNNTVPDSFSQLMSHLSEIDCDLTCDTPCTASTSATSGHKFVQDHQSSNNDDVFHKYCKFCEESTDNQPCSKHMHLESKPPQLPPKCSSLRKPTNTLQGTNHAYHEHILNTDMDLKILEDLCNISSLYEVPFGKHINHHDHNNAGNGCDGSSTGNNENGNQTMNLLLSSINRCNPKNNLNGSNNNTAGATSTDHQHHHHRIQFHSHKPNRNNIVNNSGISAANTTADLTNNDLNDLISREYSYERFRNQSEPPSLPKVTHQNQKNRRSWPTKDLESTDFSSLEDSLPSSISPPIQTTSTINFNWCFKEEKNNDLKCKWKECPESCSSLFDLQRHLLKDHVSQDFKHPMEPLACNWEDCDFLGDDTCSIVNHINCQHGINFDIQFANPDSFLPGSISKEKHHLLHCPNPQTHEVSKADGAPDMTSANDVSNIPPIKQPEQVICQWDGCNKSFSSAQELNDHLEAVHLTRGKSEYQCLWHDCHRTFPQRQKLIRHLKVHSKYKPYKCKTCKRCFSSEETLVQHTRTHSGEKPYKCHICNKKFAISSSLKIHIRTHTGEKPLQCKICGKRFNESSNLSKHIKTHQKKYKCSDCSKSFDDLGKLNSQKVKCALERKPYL
Assay: PBM E-score (8-mer binding enrichment) (E-score (-0.5 to 0.5)); higher = stronger / more preferred TF binding; most listed sequences are background and not binding sites
Conditions: protein concentration: 200 nM; construct: GST-full length
Outline: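 Masliner-normalised scans of fluorescent anti-GST signal were the basis for scoring. That signal came from GST-tagged yeast transcription factors applied at about 100-200 nM to double-stranded universal all-10-mer Agilent arrays on fresh or once-stripped slides. Each ungapped eight-base word, pooled with its reverse complement, received an E-score from the Universal PBM Analysis Suite.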

| Sequence | PBM E-score |
| --- | --- |
| CAATACCG | 0.0236 |
| CCTTAACG | 0.174 |
| AAATGCGG | 0.134 |
| CACCACCA | 0.0335 |
| ACAATGTG | -0.0256 |
| GTTTGAAA | 0.206 |
| CGCTTACC | -0.132 |
| GCCACATA | -0.00652 |
| ACATGCGT | -0.0743 |
| CGACGGAC | -0.124 |
| GATGTGTA | -0.181 |
| CCATTGGA | -0.0581 |
| CTTTGCGC | -0.0424 |
| CATTTCGC | -0.0829 |
| ATCAAGCG | 0.0309 |
| AAAATGAA | 0.0187 |
| GCGCATTA | 0.0752 |
| AGATCTTA | -0.0333 |
| CTTGCGCA | -0.00034 |
| GTTACTCA | 0.199 |
| CCGACGGC | -0.0795 |
| CGTGATGC | -0.0217 |
| CGGGATGC | -0.275 |
| AGACGTGA | 0.00521 |
| CGTCATGC | -0.194 |

| Sequence | PBM E-score |
| --- | --- |
| ATCAATGG | -0.0197 |
| AACTGAGC | -0.219 |
| CCGATAGG | 0.189 |
| GTTTGTGA | 0.111 |
| AGACATGG | -0.153 |
| ACTGCCAA | -0.0488 |
| AGTTGATC | -0.0428 |
| AGGAGAAT | 0.0756 |
| ACGAACGA | -0.0891 |
| AGAATATC | -0.132 |
| AAGGTCTC | 0.162 |
| GCAACGAA | 0.0701 |
| ATCTAAAC | -0.119 |
| AACCCCTG | 0.347 |
| TTCGCAAA | 0.196 |
| ATGACGTC | -0.139 |
| AATTGATG | 0.26 |
| AACAGGTT | 0.147 |
| AGTTCATG | 0.0692 |
| CAATCAGC | -0.0527 |
| CATGCGCC | -0.176 |
| AATTGCAA | 0.0788 |
| CCCAGCGC | -0.235 |
| AAGTAATT | 0.0548 |
| AGGCCGTG | 0.134 |

| Sequence | PBM E-score |
| --- | --- |
| ATTATTTC | 0.198 |
| CCTCCCAG | -0.291 |
| CACAACGC | -0.139 |
| AGTAGCTA | 0.0791 |
| CTATCCAG | -0.0302 |
| GAATGCGA | -0.152 |
| AGCATACA | -0.0109 |
| GTTTCGGA | 0.182 |
| GGTAGCAC | -0.00484 |
| CGGTGGAG | -0.243 |
| CTCAAGCC | -0.13 |
| CGGCCGAA | -0.0534 |
| GAGAGAGC | -0.261 |
| AGCCTTAT | -0.0493 |
| GACGGACA | -0.162 |
| GGGATCAA | 0.145 |
| TACTGTAA | 0.254 |
| CGCCATGA | -0.00203 |
| ATTGTCTC | -0.243 |
| TGAAACCA | 0.209 |
| CTATAGTA | 0.115 |
| AGTAGGCG | -0.187 |
| CAACTCGA | -0.0502 |
| ACGACTGA | -0.0338 |
| ATTTCAAA | 0.162 |

| Sequence | PBM E-score |
| --- | --- |
| CACGCGCA | -0.0768 |
| AATAGCTG | -0.109 |
| CCTCCGCC | -0.0775 |
| GGTGGGAA | 0.0321 |
| ATCCTTGA | 0.196 |
| CGAGATGC | -0.243 |
| GGGACCCA | 0.198 |
| ACCCTCAA | 0.361 |
| ATATCAGG | -0.091 |
| AATTTCCG | 0.115 |
| TAGAAAGA | -0.177 |
| GACGCAGC | -0.185 |
| AATAGGAG | -0.212 |
| ACTAGGAG | -0.203 |
| AGAAGCGC | -0.0974 |
| AATTGAAG | -0.0701 |
| ACTCTTAC | 0.226 |
| AAGTGTAG | -0.0478 |
| CGGTCCGA | -0.127 |
| ACAAGCAC | -0.209 |
| GTGTACGA | -0.111 |
| AAAAAGTG | 0.151 |
| CCGGTCGC | -0.093 |
| CCTGAAAA | -0.0503 |
| ATAGTGAT | -0.0291 |

| Sequence | PBM E-score |
| --- | --- |
| GCCCAGAC | -0.309 |
| AATAAGTA | 0.0977 |
| AGTCTTGC | -0.245 |
| ATCTTTCA | 0.185 |
| AGTCCAAC | -0.159 |
| GGGGTTCA | 0.0745 |
| GCGCCCTA | -0.151 |
| AGATTTGA | -0.0456 |
| AAGCCCTT | -0.053 |
| CATACCCA | 0.221 |
| AGGGGACG | -0.0872 |
| CTGGTTCA | -0.118 |
| CGACACTA | 0.185 |
| AGAACAAC | -0.0202 |
| CATTTATA | 0.196 |
| GCCGTGGA | -0.193 |
| ATAACAGA | 0.0914 |
| AACAAAAC | 0.136 |
| ACCGACTG | -0.204 |
| CACCGGTC | -0.112 |
| AAATCCTT | -0.162 |
| AGGGTTGA | 0.271 |
| CAGTAGGA | -0.247 |
| TACCGGCA | -0.0706 |
| AGACCGGG | 0.0501 |

| Sequence | PBM E-score |
| --- | --- |
| CTCGAATC | -0.00443 |
| CCCGGGCA | -0.0642 |
| CATGTCCG | -0.0863 |
| CTACCTCA | 0.251 |
| AGCGCTAG | -0.225 |
| ACGCAAGG | 0.107 |
| CACACGCG | -0.0613 |
| CCTTCAGA | 0.118 |
| CCGGACGA | -0.123 |
| AATCTTCC | -0.26 |
| GAGATTCC | -0.0295 |
| AGAAGTCT | -0.257 |
| ATGTTAGG | -0.0226 |
| AGAACACC | 0.0413 |
| CACAAACA | 0.159 |
| CTACATTA | -0.0456 |
| ATCTAATG | -0.0284 |
| CCATTAGA | -0.0362 |
| ACACAAGA | 0.119 |
| ATTACGAC | 0.0724 |
| GAGTCCCA | -0.119 |
| AAACTTAA | 0.174 |
| CCCGTTCC | -0.079 |
| AGTTAGGG | 0.102 |
| GAGTGCGA | -0.1 |

| Sequence | PBM E-score |
| --- | --- |
| CAACATAC | 0.111 |
| CCCAACGC | 0.0793 |
| ACTTCACA | -0.0829 |
| CTTAAGCC | -0.0415 |
| ACAAGAAT | -0.106 |
| CAGAGCAG | -0.13 |
| ACGGCCCG | -0.163 |
| AATTGTAC | 0.0773 |
| ATGCGTTG | -0.00451 |
| ACTCTCTC | -0.0978 |
| GACTTAAA | -0.0473 |
| AGTATACA | -0.0486 |
| ACTGTTTG | 0.0466 |
| CTGGGAAC | 0.0666 |
| ACTTTGGA | 0.121 |
| GGTTTAAC | 0.306 |
| GCATCCAC | -0.0702 |
| CGCTGAGA | -0.182 |
| TGCGTACA | -0.141 |
| TACAACAA | 0.276 |
| ACTGTCCG | 0.0425 |
| GCCAGAAA | 0.0793 |
